{"source": "the supplement of paper PMC12067230", "note": "This is a noisy data set.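 Note: [psi-pin-] Saccharomyces cerevisiae expressing SupN fusions, induced by 100 µM Cu2SO4, selected 7 d at 30 °C without adenine and uracil, scored by deep sequencing of output versus input.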", "data": [{"assay": "amyloid nucleation score relative to library mode (yeast Sup35 reporter selection) (log enrichment difference); higher = more amyloid nucleation", "conditions": "random library (experiment): 1;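 active = nucleation score significantly above 0 at FDR 0.05; inactive = not significantly above 0 or absent from output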", "values": [{"sequence": "EASNCFAIRHFENKFAVETLICRIWRNTAKVVNG", "amyloid nucleation score": "inactive"}, {"sequence": "EASNCFAIRHFENKFAVETLICRIYVLVVNIRGE", "amyloid nucleation score": "inactive"}, {"sequence": "EASNCFAIRHFENKFAVETLICRK", "amyloid nucleation score": "inactive"}, {"sequence": "EASNCFAIRHFENKFAVETLICRKAECFCYPREV", "amyloid nucleation score": "inactive"}, {"sequence": "EASNCFAIRHFENKFAVETLICRKAFLSYCDVWR", "amyloid nucleation score": "inactive"}, {"sequence": "EASNCFAIRHFENKFAVETLICRKFFVVARMRDL", "amyloid nucleation score": "inactive"}, {"sequence": "EASNCFAIRHFENKFAVETLICRKGYDRHFRANR", "amyloid nucleation score": -0.456}, {"sequence": "EASNCFAIRHFENKFAVETLICRKHRALMFTAVV", "amyloid nucleation score": "inactive"}, {"sequence": "EASNCFAIRHFENKFAVETLICRKHSHSWDLAVR", "amyloid nucleation score": -0.736}, {"sequence": "EASNCFAIRHFENKFAVETLICRKKAEVRQGRGA", "amyloid nucleation score": "inactive"}, {"sequence": "EASNCFAIRHFENKFAVETLICRKKQVD", "amyloid nucleation score": "inactive"}, {"sequence": "EASNCFAIRHFENKFAVETLICRKL", "amyloid nucleation score": "inactive"}, {"sequence": "EASNCFAIRHFENKFAVETLICRKN", "amyloid nucleation score": "inactive"}, {"sequence": "EASNCFAIRHFENKFAVETLICRKPAWNLQTMWE", "amyloid nucleation score": 1.18}, {"sequence": "EASNCFAIRHFENKFAVETLICRKPTWNRCVRVL", "amyloid nucleation score": "inactive"}, {"sequence": "EASNCFAIRHFENKFAVETLICRKQWAVQAHLAA", "amyloid nucleation score": "inactive"}, {"sequence": "EASNCFAIRHFENKFAVETLICRKRCNLSYGAGQ", "amyloid nucleation score": "inactive"}, {"sequence": "EASNCFAIRHFENKFAVETLICRKRDAPTAKACL", "amyloid nucleation score": "inactive"}, {"sequence": "EASNCFAIRHFENKFAVETLICRKRVPRTLAGLV", "amyloid nucleation score": -0.129}, {"sequence": "EASNCFAIRHFENKFAVETLICRKSRRCRVCVAE", "amyloid nucleation score": "inactive"}, {"sequence": "EASNCFAIRHFENKFAVETLICRKTCFDRRPGAL", "amyloid nucleation score": "inactive"}, {"sequence": "EASNCFAIRHFENKFAVETLICRKTSTGCMMQGY", "amyloid nucleation score": "inactive"}, {"sequence": "EASNCFAIRHFENKFAVETLICRKVMLTRMGIGL", "amyloid nucleation score": "inactive"}, {"sequence": "EASNCFAIRHFENKFAVETLICRKVRSIQGYL", "amyloid nucleation score": 2.16}, {"sequence": "EASNCFAIRHFENKFAVETLICRKVVTFTINRRM", "amyloid nucleation score": "inactive"}, {"sequence": "EASNCFAIRHFENKFAVETLICRKWCNGPTDAAG", "amyloid nucleation score": "inactive"}, {"sequence": "EASNCFAIRHFENKFAVETLICRL", "amyloid nucleation score": "inactive"}, {"sequence": "EASNCFAIRHFENKFAVETLICRLAGSYASGVRR", "amyloid nucleation score": "inactive"}, {"sequence": "EASNCFAIRHFENKFAVETLICRLAKANRRELSA", "amyloid nucleation score": "inactive"}, {"sequence": "EASNCFAIRHFENKFAVETLICRLAPVSLFRCGW", "amyloid nucleation score": "inactive"}, {"sequence": "EASNCFAIRHFENKFAVETLICRLARCDVAHWKW", "amyloid nucleation score": "inactive"}, {"sequence": "EASNCFAIRHFENKFAVETLICRLARRQVYQVLR", "amyloid nucleation score": "inactive"}, {"sequence": "EASNCFAIRHFENKFAVETLICRLAVTYQGNQWT", "amyloid nucleation score": "inactive"}, {"sequence": "EASNCFAIRHFENKFAVETLICRLCQRSAGRQRR", "amyloid nucleation score": "inactive"}, {"sequence": "EASNCFAIRHFENKFAVETLICRLCWRCARPGVA", "amyloid nucleation score": 0.841}, {"sequence": "EASNCFAIRHFENKFAVETLICRLE", "amyloid nucleation score": "inactive"}, {"sequence": "EASNCFAIRHFENKFAVETLICRLEPSCEWEGG", "amyloid nucleation score": "inactive"}, {"sequence": "EASNCFAIRHFENKFAVETLICRLERLYGLTVSC", "amyloid nucleation score": "inactive"}, {"sequence": "EASNCFAIRHFENKFAVETLICRLFLSRCVKALQ", "amyloid nucleation score": "inactive"}, {"sequence": "EASNCFAIRHFENKFAVETLICRLGIESDSFSSR", "amyloid nucleation score": 3.17}, {"sequence": "EASNCFAIRHFENKFAVETLICRLGLSQLTWMGG", "amyloid nucleation score": "inactive"}, {"sequence": "EASNCFAIRHFENKFAVETLICRLGRMYMCTMGA", "amyloid nucleation score": "inactive"}, {"sequence": "EASNCFAIRHFENKFAVETLICRLGSALGRGQEP", "amyloid nucleation score": 0.547}, {"sequence": "EASNCFAIRHFENKFAVETLICRLGTHRQMCPLD", "amyloid nucleation score": "inactive"}, {"sequence": "EASNCFAIRHFENKFAVETLICRLGVGYTACVGG", "amyloid nucleation score": 0.627}, {"sequence": "EASNCFAIRHFENKFAVETLICRLGVTAVKGWLW", "amyloid nucleation score": "inactive"}, {"sequence": "EASNCFAIRHFENKFAVETLICRLIWRNKIGWWS", "amyloid nucleation score": -0.029}, {"sequence": "EASNCFAIRHFENKFAVETLICRLKACVNSWCRW", "amyloid nucleation score": "inactive"}, {"sequence": "EASNCFAIRHFENKFAVETLICRLKDEHVSAVEL", "amyloid nucleation score": 3.45}, {"sequence": "EASNCFAIRHFENKFAVETLICRLKLNACTCR", "amyloid nucleation score": "inactive"}, {"sequence": "EASNCFAIRHFENKFAVETLICRLKTGVTGIMCH", "amyloid nucleation score": "inactive"}, {"sequence": "EASNCFAIRHFENKFAVETLICRLLLPEPVGGAG", "amyloid nucleation score": "inactive"}, {"sequence": "EASNCFAIRHFENKFAVETLICRLLQGLSLKRCW", "amyloid nucleation score": 4.11}, {"sequence": "EASNCFAIRHFENKFAVETLICRLLRN", "amyloid nucleation score": "inactive"}, {"sequence": "EASNCFAIRHFENKFAVETLICRLLSLCRYVTWF", "amyloid nucleation score": "inactive"}, {"sequence": "EASNCFAIRHFENKFAVETLICRLLTK", "amyloid nucleation score": "inactive"}, {"sequence": "EASNCFAIRHFENKFAVETLICRLMGLVAGEFQA", "amyloid nucleation score": "inactive"}, {"sequence": "EASNCFAIRHFENKFAVETLICRLMWMRFWRMAA", "amyloid nucleation score": "inactive"}, {"sequence": "EASNCFAIRHFENKFAVETLICRLN", "amyloid nucleation score": "inactive"}]}, {"assay": "amyloid nucleation score relative to library mode (yeast Sup35 reporter selection) (log enrichment difference); higher = more amyloid nucleation", "conditions": "random library (experiment): 2", "values": [{"sequence": "EASNCFAIRHFENKFAVETLICRIYKLF", "amyloid nucleation score": "inactive"}, {"sequence": "EASNCFAIRHFENKFAVETLICRIYWEYMCRLDK", "amyloid nucleation score": "inactive"}, {"sequence": "EASNCFAIRHFENKFAVETLICRKAHLALLSWHL", "amyloid nucleation score": "inactive"}, {"sequence": "EASNCFAIRHFENKFAVETLICRKCIFSAISVDV", "amyloid nucleation score": "inactive"}, {"sequence": "EASNCFAIRHFENKFAVETLICRKERESSRCV", "amyloid nucleation score": "inactive"}, {"sequence": "EASNCFAIRHFENKFAVETLICRKGFVTNMRLV", "amyloid nucleation score": "inactive"}, {"sequence": "EASNCFAIRHFENKFAVETLICRKGV", "amyloid nucleation score": "inactive"}, {"sequence": "EASNCFAIRHFENKFAVETLICRKKLCNCVGGIL", "amyloid nucleation score": "inactive"}, {"sequence": "EASNCFAIRHFENKFAVETLICRKLMRS", "amyloid nucleation score": "inactive"}, {"sequence": "EASNCFAIRHFENKFAVETLICRKLTCISRAWFM", "amyloid nucleation score": "inactive"}, {"sequence": "EASNCFAIRHFENKFAVETLICRKMSYMGASTDS", "amyloid nucleation score": 0.478}, {"sequence": "EASNCFAIRHFENKFAVETLICRKNNDWRSLICY", "amyloid nucleation score": "inactive"}, {"sequence": "EASNCFAIRHFENKFAVETLICRKPAMLFPEWS", "amyloid nucleation score": "inactive"}, {"sequence": "EASNCFAIRHFENKFAVETLICRKVIESNVVYES", "amyloid nucleation score": 1.22}, {"sequence": "EASNCFAIRHFENKFAVETLICRKVWETGLWRLS", "amyloid nucleation score": 4.55}, {"sequence": "EASNCFAIRHFENKFAVETLICRKWSSQDVFLDC", "amyloid nucleation score": "inactive"}, {"sequence": "EASNCFAIRHFENKFAVETLICRKYCTHGELRCL", "amyloid nucleation score": "inactive"}, {"sequence": "EASNCFAIRHFENKFAVETLICRKYTREE", "amyloid nucleation score": -0.122}, {"sequence": "EASNCFAIRHFENKFAVETLICRLCEALSNVKLC", "amyloid nucleation score": "inactive"}, {"sequence": "EASNCFAIRHFENKFAVETLICRLCILVGRLRMR", "amyloid nucleation score": "inactive"}, {"sequence": "EASNCFAIRHFENKFAVETLICRLCWESVWGPGE", "amyloid nucleation score": "inactive"}, {"sequence": "EASNCFAIRHFENKFAVETLICRLDIGIGWCLWR", "amyloid nucleation score": "inactive"}, {"sequence": "EASNCFAIRHFENKFAVETLICRLDWLV", "amyloid nucleation score": "inactive"}, {"sequence": "EASNCFAIRHFENKFAVETLICRLECSRKMIFQV", "amyloid nucleation score": 1.4}, {"sequence": "EASNCFAIRHFENKFAVETLICRLELGWWRIGRA", "amyloid nucleation score": -0.223}, {"sequence": "EASNCFAIRHFENKFAVETLICRLERLECLKCT", "amyloid nucleation score": "inactive"}, {"sequence": "EASNCFAIRHFENKFAVETLICRLFTIGTGVSER", "amyloid nucleation score": 4.2}, {"sequence": "EASNCFAIRHFENKFAVETLICRLHKCTFRNLFL", "amyloid nucleation score": "inactive"}, {"sequence": "EASNCFAIRHFENKFAVETLICRLHQ", "amyloid nucleation score": "inactive"}, {"sequence": "EASNCFAIRHFENKFAVETLICRLHYSKFFICRR", "amyloid nucleation score": "inactive"}, {"sequence": "EASNCFAIRHFENKFAVETLICRLIASYI", "amyloid nucleation score": "inactive"}, {"sequence": "EASNCFAIRHFENKFAVETLICRLIWYCATSDFM", "amyloid nucleation score": "inactive"}, {"sequence": "EASNCFAIRHFENKFAVETLICRLKAKYIRLFMC", "amyloid nucleation score": "inactive"}, {"sequence": "EASNCFAIRHFENKFAVETLICRLLDVS", "amyloid nucleation score": "inactive"}, {"sequence": "EASNCFAIRHFENKFAVETLICRLLERAVGVRTY", "amyloid nucleation score": "inactive"}, {"sequence": "EASNCFAIRHFENKFAVETLICRLLFVTNFTWFK", "amyloid nucleation score": "inactive"}, {"sequence": "EASNCFAIRHFENKFAVETLICRLLVFFVYKVNR", "amyloid nucleation score": "inactive"}]}, {"assay": "amyloid nucleation score relative to library mode (yeast Sup35 reporter selection) (log enrichment difference); higher = more amyloid nucleation; sequences are the first 22 residues of the Bri2 peptide extended by up to 12 random residues", "conditions": "random library (experiment): 3", "values": [{"sequence": "EASNCFAIRHFENKFAVETLICRKDSGTSLVSKV", "amyloid nucleation score": 3.97}, {"sequence": "EASNCFAIRHFENKFAVETLICRKFCRVWGEAL", "amyloid nucleation score": "inactive"}, {"sequence": "EASNCFAIRHFENKFAVETLICRKFMCRCRVVFE", "amyloid nucleation score": 2.63}, {"sequence": "EASNCFAIRHFENKFAVETLICRKGCVGCPLCRA", "amyloid nucleation score": "inactive"}, {"sequence": "EASNCFAIRHFENKFAVETLICRKGYGQPLRAGG", "amyloid nucleation score": "inactive"}, {"sequence": "EASNCFAIRHFENKFAVETLICRKPEKEMPRFGL", "amyloid nucleation score": "inactive"}, {"sequence": "EASNCFAIRHFENKFAVETLICRKRSRRPQKGAL", "amyloid nucleation score": "inactive"}, {"sequence": "EASNCFAIRHFENKFAVETLICRKS", "amyloid nucleation score": 0.798}, {"sequence": "EASNCFAIRHFENKFAVETLICRKSVRDPRVPLG", "amyloid nucleation score": "inactive"}, {"sequence": "EASNCFAIRHFENKFAVETLICRKTC", "amyloid nucleation score": "inactive"}, {"sequence": "EASNCFAIRHFENKFAVETLICRKTGQIWCLWPR", "amyloid nucleation score": "inactive"}, {"sequence": "EASNCFAIRHFENKFAVETLICRKVVMPDYGRLR", "amyloid nucleation score": "inactive"}, {"sequence": "EASNCFAIRHFENKFAVETLICRLAGLWLRSPVV", "amyloid nucleation score": "inactive"}, {"sequence": "EASNCFAIRHFENKFAVETLICRLASNWYMTSLA", "amyloid nucleation score": -0.0354}, {"sequence": "EASNCFAIRHFENKFAVETLICRLCGECKSRSFR", "amyloid nucleation score": -0.111}, {"sequence": "EASNCFAIRHFENKFAVETLICRLDTWLIMGSAH", "amyloid nucleation score": "inactive"}, {"sequence": "EASNCFAIRHFENKFAVETLICRLFECKV", "amyloid nucleation score": "inactive"}, {"sequence": "EASNCFAIRHFENKFAVETLICRLFRMLFSGHCG", "amyloid nucleation score": "inactive"}, {"sequence": "EASNCFAIRHFENKFAVETLICRLGLLGTTVHRV", "amyloid nucleation score": "inactive"}, {"sequence": "EASNCFAIRHFENKFAVETLICRLHDLWCRGKNA", "amyloid nucleation score": "inactive"}, {"sequence": "EASNCFAIRHFENKFAVETLICRLLRRS", "amyloid nucleation score": "inactive"}]}]}
